IC50 is the fitted dose that halves viability relative to control wells, and lower means more sensitive; a limit (>, <) means that the fit lies beyond the doses tested. For AUC the same curve is integrated over the 256-fold range of doses and scaled to a fraction; values near 1 show little effect. For some of these results: An inferred top dose was derived from the fitted curves, not read from the paper. For some of these results: Where an entry number is given, a second screen of the drug exists; the two often differ.
How the values were obtained:
Assay in all cases: Viability of human cancer cell lines after 72 h of drug (GDSC screen)
QS11 = compound: OC[C@H](Cc1ccccc1)Nc1nc(Oc2ccc3c(c2)CCC3)nc2c1ncn2Cc1ccc(-c2ccccc2)cc1 [QS11]; conditions: top dose 10.24 µM
Procedure: (§1)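 Human cancer cell lines in 384-well plates, medium with 10% serum, drug for 72 h over a 256-fold dose range (nine 2-fold or five 4-fold steps up to the top dose). Adherent lines were fixed and stained with the nucleic acid dye Syto60, suspension lines read with resazurin; signal relative to control wells, capped at 0 and 100%. One two-parameter sigmoid per drug and line, fitted in a mixed model over all curves with the slope shared within a line.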

5-Fluorouracil = compound: O=c1[nH]cc(F)c(=O)[nH]1 [5-Fluorouracil]; conditions: top dose 32 µM; top dose inferred
Procedure: as §1

JNK-9L = compound: Fc1cc(-c2ccnc(Nc3ccc(-n4cnc(N5CCOCC5)n4)cc3)n2)cc(N2CCOCC2)c1 [JNK-9L]; conditions: top dose 5.12 µM; top dose inferred
Procedure: as §1

AC220 = compound: CC(C)(C)c1cc(NC(=O)Nc2ccc(-c3cn4c(n3)sc3cc(OCCN5CCOCC5)ccc34)cc2)no1 [AC220]; conditions: top dose 1.024 µM; top dose inferred
Procedure: as §1

OSU-03012 = compound: NCC(=O)Nc1ccc(-n2nc(C(F)(F)F)cc2-c2ccc3c(ccc4ccccc43)c2)cc1 [OSU-03012]; conditions: top dose 16 µM; top dose inferred
Procedure: as §1

RDEA119 = compound: COc1cc(F)c(F)c(Nc2ccc(I)cc2F)c1NS(=O)(=O)C1(C[C@H](O)CO)CC1 [RDEA119]; conditions: top dose 5 µM, top dose inferred
Procedure: as §1

CUDC-101 = compound: C#Cc1cccc(Nc2ncnc3cc(OC)c(OCCCCCCC(=O)NO)cc23)c1 [CUDC-101]; conditions: top dose 5.12 µM; top dose inferred
Procedure: as §1

Cell Line | AUC (QS11) | IC50 (QS11) [µM] | AUC (5-Fluorouracil) | IC50 (5-Fluorouracil) [µM] | AUC (JNK-9L) | IC50 (JNK-9L) [µM] | AUC (AC220) | IC50 (AC220) [µM] | AUC (OSU-03012) | IC50 (OSU-03012) [µM] | AUC (RDEA119; screen: GDSC drug entry 1014) | IC50 (RDEA119; screen: GDSC drug entry 1014) [µM] | AUC (RDEA119; screen: GDSC drug entry 1526) | IC50 (RDEA119; screen: GDSC drug entry 1526) [µM] | AUC (CUDC-101) | IC50 (CUDC-101) [µM]
T98G (glioma, adherent) | 0.99 | > 10.2 | 0.958 | > 32 | 0.596 | 0.574 | 0.985 | > 1.02 | 0.88 | 14.5 | 0.944 | > 5 | 0.96 | > 5 | 0.888 | 5.04
MDA-MB-361 (breast, adherent) | 0.984 | > 10.2 | 0.979 | > 32 | 0.652 | 0.84 | 0.989 | > 1.02 | 0.833 | 10.3 | 0.887 | > 5 | 0.95 | > 5 | 0.431 | 0.207
NCI-H720 (lung carcinoid, suspension) | 0.992 | > 10.2 | 0.978 | > 32 | 0.992 | > 5.12 | 0.992 | > 1.02 | 0.931 | > 16 | 0.99 | > 5 | 0.991 | > 5 | 0.942 | > 5.12
SW1417 (large intestine, adherent) | 0.966 | > 10.2 | 0.958 | > 32 | 0.674 | 1.07 | 0.977 | > 1.02 | 0.867 | > 16 | 0.788 | 2.61 | 0.879 | > 5 | 0.631 | 0.787
IST-SL1 (small cell lung carcinoma, semi-adherent) | 0.95 | > 10.2 | 0.75 | 10.7 | 0.659 | 0.9 | 0.861 | 0.912 | 0.843 | 11.8 | 0.962 | > 5 | 0.951 | > 5 | 0.227 | 0.05
ES5 (Ewing sarcoma, adherent) | 0.933 | > 10.2 | 0.681 | 6.94 | 0.722 | 1.52 | 0.926 | > 1.02 | 0.713 | 4.41 | 0.947 | > 5 | 0.979 | > 5 | 0.276 | 0.0665
LN-229 (glioma, adherent) | 0.988 | > 10.2 | 0.967 | > 32 | 0.767 | 1.9 | 0.966 | > 1.02 | 0.845 | 11.5 | 0.809 | 2.6 | 0.819 | 2.83 | 0.684 | 1.04
HCC-33 (small cell lung carcinoma, adherent) | 0.928 | > 10.2 | 0.859 | 27 | 0.653 | 0.853 | 0.988 | > 1.02 | 0.75 | 5.3 | – | – | – | – | 0.411 | 0.181
SIG-M5 (acute myeloid leukaemia, suspension) | 0.524 | 0.733 | 0.118 | 0.203 | 0.34 | 0.13 | 0.984 | > 1.02 | 0.521 | 1.13 | – | – | – | – | 0.229 | 0.068
KP-N-YS (neuroblastoma, adherent) | 0.774 | 4.63 | 0.623 | 4.59 | 0.605 | 0.651 | 0.936 | > 1.02 | 0.597 | 1.93 | – | – | – | – | 0.587 | 0.575
NCI-H1734 (lung adenocarcinoma, adherent) | 0.941 | > 10.2 | 0.873 | > 32 | 0.569 | 0.503 | 0.984 | > 1.02 | 0.801 | 8.74 | – | – | – | – | 0.548 | 0.437
UACC-812 (breast, adherent) | 0.991 | > 10.2 | 0.96 | > 32 | 0.736 | 1.46 | 0.991 | > 1.02 | 0.981 | > 16 | – | – | – | – | 0.937 | > 5.12
SU-DHL-1 (anaplastic large cell lymphoma, suspension) | 0.968 | > 10.2 | 0.491 | 1.9 | 0.764 | 1.4 | 0.992 | > 1.02 | 0.696 | 2.98 | – | – | – | – | 0.62 | 0.622
H2803 (mesothelioma, adherent) | 0.931 | > 10.2 | 0.974 | > 32 | 0.633 | 0.794 | 0.982 | > 1.02 | 0.848 | 15 | – | – | – | – | 0.933 | > 5.12
Caov-3 (ovary, adherent) | 0.989 | > 10.2 | 0.751 | 9.42 | 0.785 | 1.92 | 0.991 | > 1.02 | 0.877 | 12.8 | – | – | – | – | 0.771 | 1.74
SCC-3 (B-cell lymphoma, suspension) | 0.997 | > 10.2 | 0.377 | 1.01 | 0.59 | 0.527 | 0.995 | > 1.02 | 0.817 | 5.99 | – | – | – | – | 0.558 | 0.441
BC-3 (B-cell lymphoma, suspension) | 0.872 | 8 | 0.439 | 1.39 | 0.595 | 0.565 | 0.985 | > 1.02 | 0.772 | 5.54 | – | – | – | – | 0.477 | 0.278
TALL-1 (T-cell lymphoblastic leukaemia, suspension) | 0.988 | > 10.2 | 0.878 | 29.9 | 0.828 | 2.95 | 0.987 | > 1.02 | 0.879 | 15.1 | – | – | – | – | 0.574 | 0.506
NCI-H196 (small cell lung carcinoma, adherent) | 0.984 | > 10.2 | 0.972 | > 32 | 0.636 | 0.777 | 0.953 | > 1.02 | 0.879 | > 16 | – | – | – | – | 0.434 | 0.209
COLO-829 (melanoma, adherent) | 0.948 | > 10.2 | 0.956 | > 32 | 0.574 | 0.561 | 0.962 | > 1.02 | 0.978 | > 16 | – | – | – | – | 0.633 | 0.887

Source: the supplement of paper PMC4967469
